According to the supplement of paper PMC10037445:
± gives the standard deviation of the averaged measurements. The full ranking holds about 2,900 compounds; the median of “IRF Lucia reporter activity, fold change vs agonist alone” is about 0.9, and the highest 2% start at about 2.8. The list shows a part of the results.

Assays:
RAW-Dual [1] = experiment: IRF Lucia reporter activity, fold change vs agonist alone; higher = enhanced IRF activity; details: agonist: MPLA (TLR4) […]
Method in brief: (§1)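 RAW-Dual macrophages (50,000 cells/well in DMEM, 384-well plates) received 50 nL of library stock by pin tool, then a PRR agonist 1 h later, and were kept at 37 °C, 5% CO2. After 20 hours, supernatant was read for IRF by QuantiLuc luminescence and for NF-κB by QuantiBlue absorbance at 620 nm. Reporter activity is fold change over agonist-alone wells. Cytotoxic wells had IncuCyte confluency below 70% of agonist controls in both mask sets.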

RAW-Dual [2] = experiment: IRF Lucia reporter activity, fold change vs agonist alone; cytotoxicity flag (confluency mask): not cytotoxic; higher = enhanced IRF activity
Method in brief: as §1

RAW-Dual [3] = experiment: IRF Lucia reporter activity, fold change vs agonist alone; cytotoxicity flag (confluency mask): cytotoxic (confluency <70% of control); higher = enhanced IRF activity
Method in brief: as §1

[4] = library stock concentration (final ~1000-fold dilution): 10 mM, cytotoxicity flag (confluency mask): not cytotoxic
[5] = agonist: 3'3'-cGAMP (STING) 10 ug/mL

## O=c1cc(O)c(Cl)c[nH]1
RAW-Dual [1]; [4]
  IRF Lucia reporter activity: 0.918

## O=c1cc(O)c(Cl)c[nH]1 (library stock concentration (final ~1000-fold dilution): 10 mM)
RAW-Dual [2]; [5]
  IRF Lucia reporter activity: 1.06
RAW-Dual [2]; agonist: LPS (TLR4) 0.1 ug/mL
  IRF Lucia reporter activity: 0.923

## CC(C)=CCC/C(C)=C/CC/C(C)=C/CC/C(C)=C/CC/C(C)=C/CC/C(C)=C/CC/C(C)=C/CC/C(C)=C/CC/C(C)=C/CO (library stock concentration (final ~1000-fold dilution): 10 mM)
RAW-Dual [2]; [5]
  IRF Lucia reporter activity: 0.98
RAW-Dual [2]; agonist: LPS (TLR4) 0.1 ug/mL
  IRF Lucia reporter activity: 1.21

## CC(C)=CCC/C(C)=C/CC/C(C)=C/CC/C(C)=C/CC/C(C)=C/CC/C(C)=C/CC/C(C)=C/CC/C(C)=C/CC/C(C)=C/CO
RAW-Dual [1]; [4]
  IRF Lucia reporter activity: 1.08

## COCCOC(=O)C1=C(C)NC(C)=C(C(=O)OC/C=C/c2ccccc2)C1c1cccc([N+](=O)[O-])c1 (centres undefined) (library stock concentration (final ~1000-fold dilution): 10 mM)
RAW-Dual [2]; [5]
  IRF Lucia reporter activity: 0.278
RAW-Dual [2]; agonist: LPS (TLR4) 0.1 ug/mL
  IRF Lucia reporter activity: 1.06

## COCCOC(=O)C1=C(C)NC(C)=C(C(=O)OC/C=C/c2ccccc2)C1c1cccc([N+](=O)[O-])c1 (centres undefined)
RAW-Dual [1]; [4]
  IRF Lucia reporter activity: 0.819

## COc1cc(O)c(C(=O)Nc2nc(C(=O)NCCN(C(C)C)C(C)C)cs2)cc1OC (library stock concentration (final ~1000-fold dilution): 10 mM)
RAW-Dual [2]; [5]
  IRF Lucia reporter activity: 1
RAW-Dual [2]; agonist: LPS (TLR4) 0.1 ug/mL
  IRF Lucia reporter activity: 1.22

## COc1cc(O)c(C(=O)Nc2nc(C(=O)NCCN(C(C)C)C(C)C)cs2)cc1OC
RAW-Dual [1]; [4]
  IRF Lucia reporter activity: 0.958

## Cc1cc(C)cc(C(=O)NOCCCCCC(=O)NO)c1 (library stock concentration (final ~1000-fold dilution): 10 mM)
RAW-Dual [3]; [5]
  IRF Lucia reporter activity: 0.0291
RAW-Dual [3]; agonist: LPS (TLR4) 0.1 ug/mL
  IRF Lucia reporter activity: 0.394

## Cc1cc(C)cc(C(=O)NOCCCCCC(=O)NO)c1
RAW-Dual [1]; library stock concentration (final ~1000-fold dilution): 10 mM, cytotoxicity flag (confluency mask): cytotoxic (confluency <70% of control)
  IRF Lucia reporter activity: 0.354

## CC(NC(=O)c1ccccc1N=Cc1c(O)ccc2ccccc12)c1ccccc1 (centres undefined) (library stock concentration (final ~1000-fold dilution): 10 mM)
RAW-Dual [2]; [5]
  IRF Lucia reporter activity: 0.692
RAW-Dual [2]; agonist: LPS (TLR4) 0.1 ug/mL
  IRF Lucia reporter activity: 1.45

## CC(NC(=O)c1ccccc1N=Cc1c(O)ccc2ccccc12)c1ccccc1 (centres undefined)
RAW-Dual [1]; [4]
  IRF Lucia reporter activity: 1.28

## CC1=CC2(O)OC3(CC2=C(C)C)C(C)CCC13 (centres undefined) (library stock concentration (final ~1000-fold dilution): 10 mM)
RAW-Dual [2]; [5]
  IRF Lucia reporter activity: 1.04 ± 0.089
RAW-Dual [2]; agonist: LPS (TLR4) 0.1 ug/mL
  IRF Lucia reporter activity: 1.1 ± 0.061

## CC1=CC2(O)OC3(CC2=C(C)C)C(C)CCC13 (centres undefined)
RAW-Dual [1]; [4]
  IRF Lucia reporter activity: 1.15 ± 0.02

## CNC(=O)c1cc(COc2nnc(Nc3ccc(Cl)cc3)c3ccoc23)ccn1 (library stock concentration (final ~1000-fold dilution): 10 mM)
RAW-Dual [2]; [5]
  IRF Lucia reporter activity: 0.892
RAW-Dual [2]; agonist: LPS (TLR4) 0.1 ug/mL
  IRF Lucia reporter activity: 0.529

## CNC(=O)c1cc(COc2nnc(Nc3ccc(Cl)cc3)c3ccoc23)ccn1
RAW-Dual [1]; [4]
  IRF Lucia reporter activity: 0.948

## CCC1=C(C)CN(C(=O)NCCc2ccc(S(=O)(=O)NC(=O)NC3CCC(C)CC3)cc2)C1=O (centres undefined)
RAW-Dual [1]; [4]
  IRF Lucia reporter activity: 1.16

## CCC1=C(C)CN(C(=O)NCCc2ccc(S(=O)(=O)NC(=O)NC3CCC(C)CC3)cc2)C1=O (centres undefined) (library stock concentration (final ~1000-fold dilution): 10 mM)
RAW-Dual [2]; [5]
  IRF Lucia reporter activity: 1.11
RAW-Dual [2]; agonist: LPS (TLR4) 0.1 ug/mL
  IRF Lucia reporter activity: 1.09

## CC(NC(=O)CCC(F)(F)F)C(=O)NC1C(=O)N(CCO)c2ncccc2-c2ccccc21 (centres undefined)
RAW-Dual [1]; [4]
  IRF Lucia reporter activity: 1.22

## CC(NC(=O)CCC(F)(F)F)C(=O)NC1C(=O)N(CCO)c2ncccc2-c2ccccc21 (centres undefined) (library stock concentration (final ~1000-fold dilution): 10 mM)
RAW-Dual [2]; [5]
  IRF Lucia reporter activity: 1.1
RAW-Dual [2]; agonist: LPS (TLR4) 0.1 ug/mL
  IRF Lucia reporter activity: 1.02

## O=C(O)/C=C/c1ccc(Cn2ccnc2)cc1 (library stock concentration (final ~1000-fold dilution): 10 mM)
RAW-Dual [2]; [5]
  IRF Lucia reporter activity: 0.988
RAW-Dual [2]; agonist: LPS (TLR4) 0.1 ug/mL
  IRF Lucia reporter activity: 0.998

## O=C(O)/C=C/c1ccc(Cn2ccnc2)cc1
RAW-Dual [1]; [4]
  IRF Lucia reporter activity: 1.05

## COc1cc2nccc(Oc3ccc(NC(=O)C4(C(=O)Nc5ccc(F)cc5)CC4)cc3)c2cc1OC (library stock concentration (final ~1000-fold dilution): 10 mM)
RAW-Dual [2]; [5]
  IRF Lucia reporter activity: 0.0574
RAW-Dual [2]; agonist: LPS (TLR4) 0.1 ug/mL
  IRF Lucia reporter activity: 0.236

## COc1cc2nccc(Oc3ccc(NC(=O)C4(C(=O)Nc5ccc(F)cc5)CC4)cc3)c2cc1OC
RAW-Dual [1]; [4]
  IRF Lucia reporter activity: 0.292

## Cl.Nc1ncccc1-c1nc2ccc(-c3ccccc3)nc2n1-c1ccc(C2(N)CCC2)cc1 (library stock concentration (final ~1000-fold dilution): 10 mM)
RAW-Dual [3]; [5]
  IRF Lucia reporter activity: 0.228
RAW-Dual [3]; agonist: LPS (TLR4) 0.1 ug/mL
  IRF Lucia reporter activity: 1.21

## O=C(O)CCN1C(=O)C(=Cc2ccc(-c3ccc([N+](=O)[O-])cc3)o2)SC1=S (library stock concentration (final ~1000-fold dilution): 10 mM)
RAW-Dual [2]; [5]
  IRF Lucia reporter activity: 0.0623
RAW-Dual [2]; agonist: LPS (TLR4) 0.1 ug/mL
  IRF Lucia reporter activity: 0.665

## CCc1cc2c(cc1N1CCC(N3CCOCC3)CC1)C(C)(C)c1[nH]c3cc(C#N)ccc3c1C2=O.Cl
RAW-Dual [1]; library stock concentration (final ~1000-fold dilution): 2 mM, cytotoxicity flag (confluency mask): not cytotoxic
  IRF Lucia reporter activity: 1.33

## CCc1cc2c(cc1N1CCC(N3CCOCC3)CC1)C(C)(C)c1[nH]c3cc(C#N)ccc3c1C2=O.Cl (library stock concentration (final ~1000-fold dilution): 2 mM)
RAW-Dual [2]; [5]
  IRF Lucia reporter activity: 0.387
RAW-Dual [2]; agonist: LPS (TLR4) 0.1 ug/mL
  IRF Lucia reporter activity: 1.73

## CC(C)(C)c1[nH]cnc1C=c1[nH]c(=O)c(=Cc2ccccc2)[nH]c1=O
RAW-Dual [1]; [4]
  IRF Lucia reporter activity: 1.69
